We go through 42 compounds from US7619094B2, “Ketoamides with cyclic P4's as inhibitors of NS3 serine protease of hepatitis C virus” (Schering Corporation, priority 2004, dated 2009).

Some results are limits rather than exact numbers.

The first experiment addresses Recombinant heterodimeric HCV NS3/NS4A protease (strain 1a) (Hepatitis C virus genotype 1a, UniProt P27958). The experiment is described as follows: HCV continuous assay (spectrophotometric HCV NS3/NS4A serine protease inhibition assay). As to conditions: Table 2; ranges of Ki* values in HCV continuous assay. The class given is biochemical, HCV (strain 1a).
One may read the Ki as a measure of affinity in units of concentration, obtained from inhibition or displacement. `C=CCNC(=O)C(=O)C(CCCC)NC(=O)[C@@H]1[C@@H]2[C@H](CN1C(=O)[C@@H](NC(=O)N[C@H](CN1C(=O)CCCC1=O)C(C)(C)C)C1CCCCC1)C2(C)C` (stereo partly drawn) [Compound 5705]: the Ki is no more than 50 nM.
For `C#CCCC(NC(=O)[C@@H]1[C@@H]2[C@H](CN1C(=O)[C@@H](NC(=O)N[C@H](CN1CCCN(C)C1=O)C(C)(C)C)C(C)(C)C)C2(C)C)C(=O)C(=O)NCC=C` (stereo partly drawn) [Compound 5706], the Ki was greater than 50 nM.
On the same count and under the same terms, to `C=CCNC(=O)C(=O)C(CCC)NC(=O)[C@@H]1[C@@H]2[C@H](CN1C(=O)[C@@H](NC(=O)N[C@H](CN1Cc3ccccc3CC1=O)C(C)(C)C)C(C)(C)C)C2(C)C` (stereo partly drawn) [Compound 5707] belongs no more than 50 nM.
The same measure, in the same setting: to `C=CCNC(=O)C(=O)C(CC1CC1)NC(=O)[C@@H]1[C@@H]2[C@H](CN1C(=O)[C@@H](NC(=O)N[C@H](CN1C(=O)CCCC1=O)C(C)(C)C)C1CCCCC1)C2(C)C` (stereo partly drawn) [Compound 5708] belongs no more than 50 nM.
Consider `CC(C)(C)[C@@H](CN1C(=O)CCCC1=O)NC(=O)N[C@H](C(=O)N1C[C@H]2[C@@H]([C@H]1C(=O)NC(CC1CCC1)C(=O)C(N)=O)C2(C)C)C1CCCCC1` (stereo partly drawn) [Compound 5709], for which the Ki was no more than 50 nM.
Turning to `C=CCNC(=O)C(=O)C(CCC)NC(=O)[C@@H]1[C@@H]2[C@H](CN1C(=O)[C@@H](NC(=O)N[C@H](CN1CCCCC1=O)C(C)(C)C)C1CCCCC1)C2(C)C` (stereo partly drawn) [Compound 5710], the Ki is no more than 50 nM.
Same read-out and setting: to `C=CCNC(=O)C(=O)C(CC1CC1)NC(=O)[C@@H]1[C@@H]2[C@H](CN1C(=O)[C@@H](NC(=O)N[C@H](CN1CCCNC1=O)C(C)(C)C)C(C)(C)C)C2(C)C` (stereo partly drawn) [Compound 5711] belongs no more than 50 nM; to `C=CCNC(=O)C(=O)C(CC1CCC1)NC(=O)[C@@H]1[C@@H]2[C@H](CN1C(=O)[C@@H](NC(=O)N[C@H](CN1CCCNC1=O)C(C)(C)C)C(C)(C)C)C2(C)C` (stereo partly drawn) [Compound 5712], no more than 50 nM.
Same read-out and setting: to `C=CCNC(=O)C(=O)C(CCC)NC(=O)[C@@H]1[C@@H]2[C@H](CN1C(=O)[C@@H](NC(=O)N[C@H](CN1CCCNC1=O)C(C)(C)C)C1CCCCC1)C2(C)C` (stereo partly drawn) [Compound 5713] belongs no more than 50 nM; to `C=CCNC(=O)C(=O)C(CC1CC1)NC(=O)[C@@H]1[C@@H]2[C@H](CN1C(=O)[C@@H](NC(=O)N[C@H](CN1CCCCC1=O)C(C)(C)C)C1CCCCC1)C2(C)C` (stereo partly drawn) [Compound 5714], no more than 50 nM.
On to `CC(C)(C)[C@@H](CN1C(=O)CCCC1=O)NC(=O)N[C@H](C(=O)N1C[C@H]2[C@@H]([C@H]1C(=O)NC(CC1CC1)C(=O)C(N)=O)C2(C)C)C1CCCCC1` (stereo partly drawn) [Compound 5715], for which the Ki is no more than 50 nM.
Still for that read-out and setting: for `C=CCNC(=O)C(=O)C(CCCC)NC(=O)[C@@H]1[C@@H]2[C@H](CN1C(=O)[C@@H](NC(=O)N[C@H](CN1CCCCC1=O)C(C)(C)C)C1CCCCC1)C2(C)C` (stereo partly drawn) [Compound 5716] the value was no more than 50 nM.
In the case of `C=CCNC(=O)C(=O)C(CC1CCC1)NC(=O)[C@@H]1[C@@H]2[C@H](CN1C(=O)[C@@H](NC(=O)N[C@H](CN1CCCCC1=O)C(C)(C)C)C1CCCCC1)C2(C)C` (stereo partly drawn) [Compound 5717], the Ki is no more than 50 nM.
For `CC(C)(C)[C@H](NC(=O)N[C@H](CN1C(=O)c2ccccc2C1=O)C(C)(C)C)C(=O)N1C[C@@H]2CCC[C@@H]2[C@H]1C(=O)NC(CC1CCC1)C(=O)C(N)=O` (stereo partly drawn) [Compound 5718], the Ki is no more than 50 nM.
In the case of `CCCCC(NC(=O)[C@@H]1[C@@H]2[C@H](CN1C(=O)[C@@H](NC(=O)N[C@H](CN1CCCCC1=O)C(C)(C)C)C1CCCCC1)C2(C)C)C(=O)C(=O)NCC` (stereo partly drawn) [Compound 5719], the Ki was no more than 50 nM.
`C=CCNC(=O)C(=O)C(CCC(F)(F)F)NC(=O)[C@@H]1[C@@H]2[C@H](CN1C(=O)[C@@H](NC(=O)N[C@H](CN1CCCCC1=O)C(C)(C)C)C1CCCCC1)C2(C)C` (stereo partly drawn) [Compound 5720]: the Ki was no more than 50 nM.
Still for that read-out and setting: for `C#CCCC(NC(=O)[C@@H]1[C@@H]2[C@H](CN1C(=O)[C@@H](NC(=O)N[C@H](CN1CCCCC1=O)C(C)(C)C)C1CCCCC1)C2(C)C)C(=O)C(=O)NCC=C` (stereo partly drawn) [Compound 5721] the value was no more than 50 nM.
As for `C=CCNC(=O)C(=O)C(CC1CC1)NC(=O)[C@@H]1[C@@H]2[C@H](CN1C(=O)[C@@H](NC(=O)N[C@H](CN1CCCCC1=O)C(C)(C)C)C1Cc3ccccc3C1)C2(C)C` (stereo partly drawn) [Compound 5722], the inhibition constant Ki was no more than 50 nM.
For the compound `C=CCNC(=O)C(=O)C(CC1CCC1)NC(=O)[C@@H]1[C@@H]2[C@H](CN1C(=O)[C@@H](NC(=O)N[C@H](CN1C(=O)CCCC1=O)C(C)(C)C)C1CCCCC1)C2(C)C` (stereo partly drawn) [Compound 5723], the Ki was no more than 50 nM.
Same read-out and setting: to `C=CCNC(=O)C(=O)C(CCC)NC(=O)[C@@H]1[C@@H]2[C@H](CN1C(=O)[C@@H](NC(=O)N[C@H](CN1CCCCC1=O)C(C)(C)C)C1Cc3ccccc3C1)C2(C)C` (stereo partly drawn) [Compound 5724] belongs no more than 50 nM.
On the same count and under the same terms, for `C=CCNC(=O)C(=O)C(CCCC)NC(=O)[C@@H]1[C@@H]2[C@H](CN1C(=O)[C@@H](NC(=O)N[C@H](CN1CCCCC1=O)C(C)(C)C)C1Cc3ccccc3C1)C2(C)C` (stereo partly drawn) [Compound 5725] the value was no more than 50 nM.
The same measure, in the same setting: for `C#CCCC(NC(=O)[C@@H]1[C@@H]2[C@H](CN1C(=O)[C@@H](NC(=O)N[C@H](CN1CCCNC1=O)C(C)(C)C)C1Cc3ccccc3C1)C2(C)C)C(=O)C(=O)NCC=C` (stereo partly drawn) [Compound 5726] the value was no more than 50 nM; for `C=CCNC(=O)C(=O)C(CC1CC1)NC(=O)[C@@H]1[C@@H]2[C@H](CN1C(=O)[C@@H](NC(=O)N[C@H](CN1CCCNC1=O)C(C)(C)C)C1Cc3ccccc3C1)C2(C)C` (stereo partly drawn) [Compound 5727], no more than 50 nM; for `C=CCNC(=O)C(=O)C(CCCC)NC(=O)[C@@H]1[C@@H]2[C@H](CN1C(=O)[C@@H](NC(=O)N[C@H](CN1CCCNC1=O)C(C)(C)C)C1Cc3ccccc3C1)C2(C)C` (stereo partly drawn) [Compound 5728], no more than 50 nM.
For the compound `C=CCNC(=O)C(=O)C(CCCC)NC(=O)[C@@H]1[C@@H]2[C@H](CN1C(=O)[C@@H](NC(=O)N[C@H](CN1Cc3ccccc3CC1=O)C(C)(C)C)C(C)(C)C)C2(C)C` (stereo partly drawn) [Compound 5729], the Ki was no more than 50 nM.
Same read-out and setting: to `C=CCNC(=O)C(=O)C(CCCC)NC(=O)[C@@H]1[C@@H]2[C@H](CN1C(=O)[C@@H](NC(=O)N[C@H](CN1CCCCC1=O)C1CCCCC1)C(C)(C)C)C2(C)C` (stereo partly drawn) [Compound 5730] belongs no more than 50 nM; to `C=CCNC(=O)C(=O)C(CCC)NC(=O)[C@@H]1[C@@H]2[C@H](CN1C(=O)[C@@H](NC(=O)N[C@H](CN1CCCCC1=O)C1CCCCC1)C(C)(C)C)C2(C)C` (stereo partly drawn) [Compound 5731], no more than 50 nM; to `C=CCNC(=O)C(=O)C(CC1CC1)NC(=O)[C@@H]1[C@@H]2[C@H](CN1C(=O)[C@@H](NC(=O)N[C@H](CN1CCCCC1=O)C1CCCCC1)C(C)(C)C)C2(C)C` (stereo partly drawn) [Compound 5732], no more than 50 nM.
On the same count and under the same terms, for `C=CCNC(=O)C(=O)C(CCC)NC(=O)[C@@H]1[C@@H]2[C@H](CN1C(=O)[C@@H](NC(=O)N[C@H](CN1C(=O)Cc3ccccc3C1=O)C(C)(C)C)C(C)(C)C)C2(C)C` (stereo partly drawn) [Compound 5733] the value was no more than 50 nM; for `CCCCC(NC(=O)[C@@H]1[C@@H]2[C@H](CN1C(=O)[C@@H](NC(=O)N[C@H](CN1CCCCC1=O)C(C)(C)C)C(C)(C)C)C2(C)C)C(=O)C(=O)NCC` (stereo partly drawn) [Compound 5734], no more than 50 nM; for `CCCC(NC(=O)[C@@H]1[C@@H]2[C@H](CN1C(=O)[C@@H](NC(=O)N[C@H](CN1CCCCC1=O)C(C)(C)C)C(C)(C)C)C2(C)C)C(=O)C(=O)NC1CC1` (stereo partly drawn) [Compound 5735], no more than 50 nM.
Same read-out and setting: to `C=CCNC(=O)C(=O)C(CC1CCC1)NC(=O)[C@@H]1[C@@H]2[C@H](CN1C(=O)[C@@H](NC(=O)N[C@H](CN1CCCCC1=O)C1CCCCC1)C(C)(C)C)C2(C)C` (stereo partly drawn) [Compound 5736] belongs no more than 50 nM.
In the case of `C=CCNC(=O)C(=O)C(CCCC)NC(=O)[C@@H]1[C@@H]2[C@H](CN1C(=O)[C@@H](NC(=O)N[C@H](CN1C(=O)Cc3ccccc3C1=O)C(C)(C)C)C(C)(C)C)C2(C)C` (stereo partly drawn) [Compound 5737], the Ki was no more than 50 nM.
Same read-out and setting: for `C=CCNC(=O)C(=O)C(CC1CCC1)NC(=O)[C@@H]1[C@@H]2[C@H](CN1C(=O)[C@@H](NC(=O)N[C@H](CN1C(=O)Cc3ccccc3C1=O)C(C)(C)C)C(C)(C)C)C2(C)C` (stereo partly drawn) [Compound 5738] the value was greater than 50 nM; for `C=CCNC(=O)C(=O)C(CC1CC1)NC(=O)[C@@H]1[C@@H]2[C@H](CN1C(=O)[C@@H](NC(=O)N[C@H](CN1C(=O)Cc3ccccc3C1=O)C(C)(C)C)C(C)(C)C)C2(C)C` (stereo partly drawn) [Compound 5739], no more than 50 nM; for `C#CCCC(NC(=O)[C@@H]1[C@@H]2[C@H](CN1C(=O)[C@@H](NC(=O)N[C@H](CN1CCCCC1=O)C1CCCCC1)C(C)(C)C)C2(C)C)C(=O)C(=O)NCC=C` (stereo partly drawn) [Compound 5740], no more than 50 nM.
On the same count and under the same terms, for `C#CCCC(NC(=O)[C@@H]1[C@@H]2[C@H](CN1C(=O)[C@@H](NC(=O)N[C@H](CN1C(=O)Cc3ccccc3C1=O)C(C)(C)C)C(C)(C)C)C2(C)C)C(=O)C(=O)NCC=C` (stereo partly drawn) [Compound 5741] the value was no more than 50 nM.
Still for that read-out and setting: for `C=CCNC(=O)C(=O)C(CCC)NC(=O)[C@@H]1[C@@H]2[C@H](CN1C(=O)[C@@H](NC(=O)N[C@H](CN1Cc3ccccc3C1=O)C(C)(C)C)C(C)(C)C)C2(C)C` (stereo partly drawn) [Compound 5742] the value was greater than 50 nM; for `C=CCNC(=O)C(=O)C(CC1CCC1)NC(=O)[C@@H]1[C@@H]2[C@H](CN1C(=O)[C@@H](NC(=O)N[C@H](CN1Cc3ccccc3C1=O)C(C)(C)C)C(C)(C)C)C2(C)C` (stereo partly drawn) [Compound 5744], greater than 50 nM.
Take `CC(C)(C)[C@H](NC(=O)N[C@H](CN1Cc2ccccc2C1=O)C(C)(C)C)C(=O)N1C[C@H]2[C@@H]([C@H]1C(=O)NC(CC1CC1)C(=O)C(N)=O)C2(C)C` (stereo partly drawn) [Compound 5745]: the Ki is no more than 50 nM.
On the same count and under the same terms, to `CCCCC(NC(=O)[C@@H]1[C@@H]2[C@H](CN1C(=O)[C@@H](NC(=O)N[C@H](CN1Cc3ccccc3C1=O)C(C)(C)C)C(C)(C)C)C2(C)C)C(=O)C(=O)NCC` (stereo partly drawn) [Compound 5746] belongs greater than 50 nM; to `C=CCNC(=O)C(=O)C(CCC(F)(F)F)NC(=O)[C@@H]1[C@@H]2[C@H](CN1C(=O)[C@@H](NC(=O)N[C@H](CN1Cc3ccccc3C1=O)C(C)(C)C)C(C)(C)C)C2(C)C` (stereo partly drawn) [Compound 5747], no more than 50 nM.

Staying with this experiment, now noted: Table 4; Ki* values.
Take `C=CCNC(=O)C(=O)C(CCCC)NC(=O)[C@@H]1[C@@H]2[C@H](CN1C(=O)[C@@H](NC(=O)N[C@H](CN1C(=O)CCCC1=O)C(C)(C)C)C1CCCCC1)C2(C)C` (stereo partly drawn) [Compound 5705]: the Ki was determined as 3 nM.
Still for that read-out and setting: for `C=CCNC(=O)C(=O)C(CCC)NC(=O)[C@@H]1[C@@H]2[C@H](CN1C(=O)[C@@H](NC(=O)N[C@H](CN1CCCCC1=O)C(C)(C)C)C1Cc3ccccc3C1)C2(C)C` (stereo partly drawn) [Compound 5724] the value was 19 nM; for `C=CCNC(=O)C(=O)C(CCC)NC(=O)[C@@H]1[C@@H]2[C@H](CN1C(=O)[C@@H](NC(=O)N[C@H](CN1CCCCC1=O)C1CCCCC1)C(C)(C)C)C2(C)C` (stereo partly drawn) [Compound 5731], 15 nM.
